Source: PubChem BioAssay (NCI)
Where “and” joins values, the source holds several entries; their conditions need not be identical. Equal entries are not always repeated.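 Method: 48-hour compound exposure of cells in 96-well plates, five concentrations, linear interpolation of endpoints. The concentration for 50% growth inhibition is given as GI50. TGI denotes the concentration required for complete inhibition of growth.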

test system: NCI-H322M lung; assay: NCI-60 cell line screen, 48 h

Compared with O=S(=O)(c1ccc(N=C2NN=C(c3c[nH]c4ccccc34)CS2)cc1)N1CCOCC1, COc1ccc(CNc2c3ccccc3nc3ccc(OC)cc23)cc1 is lower in GI50: > 100 µM for the first, 3.04 µM for the second.

First: COc1c(Cl)c2c(c(OC)c1OC)-c1ccc(SC)c(=O)cc1[C@@H](NC(=O)OCC(F)(F)F)CC2
Second: COc1ccc2c(CN3CCC[C@H]3C(=O)O)cc3cc4c(cc3c2c1)OCO4
The GI50 of the first is lower: < 0.01 µM for the first, 15.4 µM for the second.

Going from CC1(C)CC(n2cnc(-c3ccc(F)cc3)c2-c2ccnc(N)n2)CC(C)(C)N1 to O=CN1N=C(c2ccc(Cl)cc2)CC1c1cccc(Nc2ccnc3cc(Cl)ccc23)c1 (stereo unspecified), the GI50 falls from > 25 µM to 5.52 µM.

Compared with O=C(Nc1ccc(F)cc1F)c1cc(Br)ccc1O, Cc1cc(I)cc(CN(C)CCN2CCCC2)c1O is 21-fold higher in GI50: 3.03 µM for the first, 63.2 µM for the second.

In the case of CC/C(=C(/CC)c1ccc(O)cc1)c1ccc([O-])cc1.CC/C(=C(/CC)c1ccc(O)cc1)c1ccc([O-])cc1.O=C([CH-]C(=O)c1ccccc1)c1ccccc1.O=C([CH-]C(=O)c1ccccc1)c1ccccc1.[Ti+4], the GI50 is reported as 14.8 µM.

O=S(=O)(c1ccc(N=C2NN=C(c3c[nH]c4ccccc34)CS2)cc1)N1CCOCC1 and O=c1ccnc2c1ccc1[nH]cccc12 cannot be ordered by TGI: > 100 µM for the first, > 100 µM for the second.

Going from CC1=CC(=O)C(=O)C2=C1OC1(C2)C(C)CCC2C3(C)CCC(O)C(C)(C)C3CCC21C (stereo unspecified) to CCOC(=O)C1C(c2ccc(OC)cc2)c2c([nH][nH]c2=O)CC1(O)OCC (stereo unspecified), the TGI rises from 55.8 µM to > 100 µM.

First: O=C1c2ccccc2C2=Nc3ccncc3CN12
Second: COc1ccc2c(c1)N=C1CSC(c3cccc(Br)c3)N1C2 (stereo unspecified)
The TGI of the first is higher: > 100 µM for the first, 40.1 µM for the second.

COc1c(Cl)c2c(c(OC)c1OC)-c1ccc(SC)c(=O)cc1[C@@H](NC(=O)OCC(F)(F)F)CC2 and COc1ccc2cc3[n+](cc2c1OC)CCc1cc(O)c(O)cc1-3 cannot be ordered by TGI: > 100 µM for the first, > 100 µM for the second.

N#Cc1c(Cl)c2ccccc2n2c1nc1ccccc12 and CC1=NN(C(=O)c2ccccc2O)C(=O)/C1=C/c1ccccc1O cannot be ordered by TGI: > 100 µM for the first, > 70.6 µM for the second.

O=C(O)c1ccccc1C(=O)Nn1cnnc1 and CC(=O)/C(=C\C1=CCCO1)C(=O)Nc1ccccc1C cannot be ordered by TGI: > 100 µM for the first, > 100 µM for the second.

C=C(C)CN(CC#N)CC(=C)C and CCN(CC)CCNC(=O)c1nn(C)c(=S)[nH]c1=S cannot be ordered by TGI: > 100 µM for the first, > 100 µM for the second.

Going from CCCCCCCCC/C=C1\CC(CO)(COC(=O)C2CCCCC2)OC1=O (stereo unspecified) to CCCCC(=O)NC1(c2cc3ccccc3s2)CCCCC1, the TGI rises from 0.46 µM to > 100 µM.

Going from Nc1cc(-c2cccc(OC(F)(F)F)c2)nc2ccc(N3CCCC3)cc12 to COc1ccc(CNc2c3ccccc3nc3ccc(OC)cc23)cc1, the TGI falls from > 100 µM to 11 µM.

CC1(C)CC(n2cnc(-c3ccc(F)cc3)c2-c2ccnc(N)n2)CC(C)(C)N1 and Nc1nc(=S)[nH]c(C(=O)Nc2ccc(Cl)c(Cl)c2)c1-c1ccc(Cl)cc1 cannot be ordered by TGI: > 25 µM for the first, > 100 µM for the second.

Going from Cc1nc2cc(N)c(F)cc2[nH]1 to CCC1=CC2Cc3nc4cc(Cl)ccc4c(N)c3C(C1)C2 (stereo unspecified), the TGI falls from > 100 µM to 17.2 µM.

CC1=NN(c2nc(N)nc(CSCc3nc(N)nc(N(C)C)n3)n2)C(C)(C)C1 and CCc1nc(N)nc(C(=O)NCCNC(=O)c2nc(N)nc(CC)c2C)c1C cannot be ordered by TGI: > 100 µM for the first, > 100 µM for the second.

COc1cc(C(c2cc3c(cc2O)OCO3)N2CCCCC2)cc(OC)c1OC (stereo unspecified) and COc1cc([C@@H]2c3cc4c(cc3C[C@@H]3COC(=O)C32)OCO4)cc(OC)c1O (stereo partly specified) cannot be ordered by TGI: > 66.4 µM for the first, > 100 µM for the second.

O=C(Nc1ccc(F)cc1F)c1cc(Br)ccc1O and COc1cc(C(=O)C/C(CCC(=O)Nc2ccc(Cl)cc2C)=N/NC(=O)C(N)=O)ccc1O cannot be ordered by TGI: > 100 µM for the first, > 100 µM for the second.

CSc1nc(NC(=O)O)c(N(C(C)=O)C(=O)O)c(=O)n1C and Cc1cccc(C)c1NC(=S)NC=C(C(N)=O)C(N)=O cannot be ordered by TGI: > 100 µM for the first, > 100 µM for the second.

CCSC1=N/C(=C\c2ccco2)C(Cl)=N1 and Cc1cccc2[s+]snc12 cannot be ordered by TGI: > 100 µM for the first, > 100 µM for the second.

CC/C(=C(/CC)c1ccc(O)cc1)c1ccc([O-])cc1.CC/C(=C(/CC)c1ccc(O)cc1)c1ccc([O-])cc1.O=C([CH-]C(=O)c1ccccc1)c1ccccc1.O=C([CH-]C(=O)c1ccccc1)c1ccccc1.[Ti+4] and C(=NCc1ccccc1)c1ccccc1-c1ccccc1C=NCc1ccccc1 cannot be ordered by TGI: 38.6 µM for the first, > 10 µM for the second.

COc1cc(NCc2ccc3nc(OC)c(OC)nc3c2)cc(OC)c1OC and COc1cc(C=Nc2ccc(C(C)C)cc2)cc(OC)c1OC cannot be ordered by TGI: > 100 µM for the first, > 100 µM for the second.

First: CC(C)(C)[Si](C)(C)OCC1CCC(n2cnc3c(N)ncnc32)O1 (stereo unspecified)
Second: COc1ccc2c(CN3CCC[C@H]3C(=O)O)cc3cc4c(cc3c2c1)OCO4
The TGI of the first is higher: > 100 µM for the first, 69 µM for the second.

Cc1ccc(SCC(CF)OCn2cc(F)c(=O)[nH]c2=O)cc1 (stereo unspecified) and Cc1nn(-c2ccccc2)c2[nH]c(=S)cnc12 cannot be ordered by TGI: > 100 µM for the first, > 100 µM for the second.

O=P([O-])(O)OP(=O)([O-])O.[NH-][C@@H]1CCCC[C@H]1[NH-].[Pt+4] and O=C1CCC2CCC1C2 (stereo unspecified) cannot be ordered by TGI: > 100 µM for the first, > 100 µM for the second.

O=CN1N=C(c2ccc(Cl)cc2)CC1c1cccc(Nc2ccnc3cc(Cl)ccc23)c1 (stereo unspecified) and Cc1cc(C)nc(NS(=O)(=O)c2ccc(Nc3c4ccc(Cl)cc4nc4c(C(=O)Nc5ccc(S(=O)(=O)N=C(N)N)cc5)cccc34)cc2)n1 cannot be ordered by TGI: > 100 µM for the first, > 100 µM for the second.

Going from NC(N)=N/N=C/c1c(-c2ccc([N+](=O)[O-])cc2)nc2n1CCS2 to Cc1cc(I)cc(CN(C)CCN2CCCC2)c1O, the TGI rises from 26.1 µM to > 100 µM.

CC1=C(C(=O)NCCc2ccccc2)CC(C(=O)NCCc2ccccc2)=C(C)N1 and [N-]=[NH+]CC(=O)OC(COCc1ccccc1)COCc1ccccc1 cannot be ordered by TGI: > 100 µM for the first, > 100 µM for the second.

CC(C)C1CCC/C=C/C=C/C=C/C=C/C(OC2OC(C)C(O)C(N)C2O)CC2OC(O)(CC(O)CC(O)C(O)CCC(=O)O1)CC(O)C2C(=O)O (stereo unspecified) and NC(CCP(=O)(O)CCC1C=CC=CC1)C(=O)O (stereo unspecified) cannot be ordered by TGI: > 52.5 µM for the first, > 100 µM for the second.

Nc1cc(-c2cccc(OC(F)(F)F)c2)nc2ccc(N3CCCC3)cc12 was tested, and the GI50 was 0.305 µM and 0.208 µM and 0.125 µM.
O=P([O-])(O)OP(=O)([O-])O.[NH-][C@@H]1CCCC[C@H]1[NH-].[Pt+4] was tested, and the GI50 was 59.5 µM and 25.2 µM.
